Experimental data taken from PubChem BioAssay (NCI).
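The compound was tested at five concentrations on cells cultured in 96-well plates, with a 48-hour exposure period. The concentration for 50% growth inhibition is given as GI50.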 A number of entries come with more than one value. This list holds those alone. An entry can have further records. For some of these results: Records of one sample usually come from different ranges of test concentrations, not given here; some values may only mark the edge of a range.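 TGI marks complete inhibition of growth.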 For some of these results: Values given together are repeated measurements in other runs, samples, wells, individuals or studies. What stands in brackets tells the records apart. A, B and so on number the origins entry by entry.

Key:
Assay in all cases: NCI tumour cell line growth inhibition, 48 h
HL-60(TB) leukemia = test system: HL-60(TB) leukemia
HOP-62 NSCLC = test system: HOP-62 NSCLC
HS 578T breast = test system: HS 578T breast
NCI-H23 lung = test system: NCI-H23 lung
NCI/ADR-RES ovarian = test system: NCI/ADR-RES ovarian
RPMI-8226 leukemia = test system: RPMI-8226 leukemia
DMS 273 small cell lung = test system: DMS 273 small cell lung
KM20L2 colon = test system: KM20L2 colon
P388/ADR leukemia = test system: P388/ADR leukemia

Row | SMILES | TGI (HL-60(TB) leukemia) | TGI (HOP-62 NSCLC) | TGI (HS 578T breast) | TGI (NCI-H23 lung) | TGI (NCI/ADR-RES ovarian) | TGI (RPMI-8226 leukemia) | TGI (DMS 273 small cell lung) | GI50 (KM20L2 colon) | TGI (KM20L2 colon) | GI50 (P388/ADR leukemia)
1 | O=C(Nc1cccc(Cl)c1)c1cc2ccccc2cc1O | 7.11 µM [sample A, 1 test] and > 100 µM [sample B, 1 test] | 9.3 µM [sample A, 1 test] and > 100 µM [sample B, 1 test] | > 100 µM [sample A, 1 test] and 9.05 µM [sample B, 1 test] | 7.38 µM [sample A, 1 test] and > 100 µM [sample B, 1 test] | 7.45 µM [sample A, 1 test] and > 100 µM [sample B, 1 test] | 6.04 µM [sample A, 1 test] and > 100 µM [sample B, 1 test] |  |  |  | 
2 | C=C1C(=O)O[C@H]2[C@H]1[C@@H](OC(=O)C=C(C)C)CC1=C[C@@H](C[C@@]3(C)O[C@@H]23)OC1=O |  |  |  |  |  |  | 3.08 µM and 47.7 µM | 139 nM and 6.16 µM | 949 nM and 22.1 µM | 192 nM and 2.38 µM
